# Assay results as given in the supplement of paper PMC8728848.
# The other results are listed elsewhere or left out.
# How the values were obtained:
# Test in all cases: glycan array binding signal (z-score within array); higher = stronger binding
# Conditions in all cases: glycan notation: IUPAC condensed, linker removed; mutation: N224Q
# [1] = target: Man(a1-2)Man(a1-3)[Man(a1-2)Man(a1-6)]Man
# Method in brief: (§1)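 The binding signal is a Z-score computed within each array and averaged over linkers. Arrays of the same protein sequence at different concentrations or buffers were also averaged together. Data originate from 3228 arrays in the Consortium for Functional Glycomics database, kept only where the protein sequence was available.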
# [2] = target: Man(a1-2)Man(a1-3)[Man(a1-2)Man(a1-6)]Man(a1-6)[Man(a1-2)Man(a1-2)Man(a1-3)]Man
# Method in brief: as §1
# [3] = target: Man(a1-2)Man(a1-3)[Man(a1-2)Man(a1-6)]Man(a1-6)[Man(a1-2)Man(a1-2)Man(a1-3)]Man(b1-4)GlcNAc(b1-4)GlcNAc
# Method in brief: as §1
# [4] = target: Man(a1-2)Man(a1-3)[Man(a1-6)]Man(a1-6)[Man(a1-2)Man(a1-3)]Man(b1-4)GlcNAc(b1-4)GlcNAc
# Method in brief: as §1
# [5] = target: Man(a1-2)Man(a1-6)[Man(a1-3)]Man(a1-6)[Man(a1-2)Man(a1-2)Man(a1-3)]Man
# Method in brief: as §1
# [6] = target: Man(a1-2)Man(a1-6)[Man(a1-3)]Man(a1-6)[Man(a1-2)Man(a1-2)Man(a1-3)]Man(b1-4)GlcNAc(b1-4)GlcNAc
# Method in brief: as §1
# [7] = target: Man(a1-3)[Man(a1-6)]Man
# Method in brief: as §1
# [8] = target: Man(a1-3)[Man(a1-6)]Man(a1-6)[Man(a1-2)Man(a1-3)]Man(b1-4)GlcNAc(b1-4)GlcNAc
# Method in brief: as §1
# [9] = target: Man(a1-3)[Man(a1-6)]Man(a1-6)[Man(a1-3)]Man
# Method in brief: as §1
# [10] = target: Man(a1-3)[Man(a1-6)]Man(a1-6)[Man(a1-3)]Man(b1-4)GlcNAc(b1-4)GlcNAc
# Method in brief: as §1
# [11] = target: Man(a1-3)[Man(a1-6)]Man(b1-4)GlcNAc(b1-4)GlcNAc
# Method in brief: as §1
# [12] = target: Man(a1-3)[Man(a1-6)]Man(b1-4)GlcNAc(b1-4)[Fuc(a1-6)]GlcNAc
# Method in brief: as §1
# [13] = target: Man(a1-6)Man
# Method in brief: as §1
# [14] = target: Man(b1-4)GlcNAc
# Method in brief: as §1
# [15] = target: MurNAc(b1-4)GlcNAc
# Method in brief: as §1
# [16] = target: Neu5Ac(a2-3)Gal
# Method in brief: as §1
# [17] = target: Neu5Ac(a2-3)Gal(b1-3)GalNAc
# Method in brief: as §1
# [18] = target: Neu5Ac(a2-3)Gal(b1-3)GalNAc(b1-3)Gal(a1-4)Gal(b1-4)Glc
# Method in brief: as §1
# [19] = target: Neu5Ac(a2-3)Gal(b1-3)GalNAc(b1-4)Gal(b1-4)Glc
# Method in brief: as §1
# [20] = target: Neu5Ac(a2-3)Gal(b1-3)GalNAc(b1-4)[Neu5Ac(a2-3)]Gal(b1-4)Glc
# Method in brief: as §1
# [21] = target: Neu5Ac(a2-3)Gal(b1-3)GalNAc(b1-4)[Neu5Ac(a2-8)Neu5Ac(a2-3)]Gal(b1-4)Glc
# Method in brief: as §1
# [22] = target: Neu5Ac(a2-3)Gal(b1-3)GalNAc6S
# Method in brief: as §1
# [23] = target: Neu5Ac(a2-3)Gal(b1-3)GlcNAc
# Method in brief: as §1
# [24] = target: Neu5Ac(a2-3)Gal(b1-3)GlcNAc(b1-2)Man
# Method in brief: as §1
# [25] = target: Neu5Ac(a2-3)Gal(b1-3)GlcNAc(b1-2)Man(a1-3)[GlcNAc(b1-4)][Neu5Ac(a2-3)Gal(b1-3)GlcNAc(b1-2)Man(a1-6)]Man(b1-4)GlcNAc(b1-4)GlcNAc
# Method in brief: as §1
# [26] = target: Neu5Ac(a2-3)Gal(b1-3)GlcNAc(b1-2)Man(a1-3)[Neu5Ac(a2-3)Gal(b1-3)GlcNAc(b1-2)Man(a1-6)]Man(b1-4)GlcNAc(b1-4)GlcNAc
# Method in brief: as §1
# [27] = target: Neu5Ac(a2-3)Gal(b1-3)GlcNAc(b1-2)[Neu5Ac(a2-3)Gal(b1-3)GlcNAc(b1-4)]Man(a1-6)[Neu5Ac(a2-3)Gal(b1-3)GlcNAc(b1-2)Man(a1-3)]Man(b1-4)GlcNAc(b1-4)GlcNAc
# Method in brief: as §1
# [28] = target: Neu5Ac(a2-3)Gal(b1-3)GlcNAc(b1-3)Gal(b1-3)GlcNAc
# Method in brief: as §1
# [29] = target: Neu5Ac(a2-3)Gal(b1-3)GlcNAc(b1-3)Gal(b1-4)GlcNAc
# Method in brief: as §1
# [30] = target: Neu5Ac(a2-3)Gal(b1-3)GlcNAc(b1-3)GalNAc
# Method in brief: as §1
# [31] = target: Neu5Ac(a2-3)Gal(b1-3)GlcNAc(b1-6)GalNAc
# Method in brief: as §1
# [32] = target: Neu5Ac(a2-3)Gal(b1-3)GlcNAc6S
# Method in brief: as §1
# [33] = target: Neu5Ac(a2-3)Gal(b1-3)[Fuc(a1-4)]GlcNAc
# Method in brief: as §1
# [34] = target: Neu5Ac(a2-3)Gal(b1-3)[Fuc(a1-4)]GlcNAc(b1-3)Gal(b1-3)[Fuc(a1-4)]GlcNAc
# Method in brief: as §1
# [35] = target: Neu5Ac(a2-3)Gal(b1-3)[Fuc(a1-4)]GlcNAc(b1-3)Gal(b1-4)[Fuc(a1-3)]GlcNAc
# Method in brief: as §1
# [36] = target: Neu5Ac(a2-3)Gal(b1-3)[GlcNAc(b1-6)]GalNAc
# Method in brief: as §1
# [37] = target: Neu5Ac(a2-3)Gal(b1-3)[Neu5Ac(a2-6)]GalNAc
# Method in brief: as §1
binder,measurement,setting,value
AAL (Aleuria aurantia) (protein) MPTEFLYTSKIAAISWAATGGRQQRVYFQDLNGKIREAQRGGDNPWTGGSSQNVIGEAKLFSPLAAVTWKSAQGIQIRVYCVNKDNILSEFVYDGSKWITGQLGSVGVKVGSNSKLAALQWGGSESAPPNIRVYYQKSNGSGSSIHEYVWSGKWTAGASFGSTVPGTGIGATAIGPGRLRIYYQATDNKIREHCWDSNSWYVGGFSASASAGVSIAAISWGSTPQIRVYWQKGREELYEAAYGGSWNTPGQIKDASRPTPSLPDTFIAANSSGNIDISVFFQASGVSLQQWQWISGKGWSIGAVVPTGTPAGW,glycan array binding signal (z-score),[1],-0.315
same,glycan array binding signal (z-score),[2],-0.312
same,glycan array binding signal (z-score),[3],-0.312
same,glycan array binding signal (z-score),[4],-0.309
same,glycan array binding signal (z-score),[5],-0.315
same,glycan array binding signal (z-score),[6],-0.318
same,glycan array binding signal (z-score),[7],-0.312
same,glycan array binding signal (z-score),[8],-0.3
same,glycan array binding signal (z-score),[9],-0.283
same,glycan array binding signal (z-score),[10],-0.312
same,glycan array binding signal (z-score),[11],-0.311
same,glycan array binding signal (z-score),[12],1.03
same,glycan array binding signal (z-score),[13],-0.316
same,glycan array binding signal (z-score),[14],-0.313
same,glycan array binding signal (z-score),[15],-0.327
same,glycan array binding signal (z-score),[16],-0.327
same,glycan array binding signal (z-score),[17],-0.306
same,glycan array binding signal (z-score),[18],-0.313
same,glycan array binding signal (z-score),[19],-0.304
same,glycan array binding signal (z-score),[20],-0.312
same,glycan array binding signal (z-score),[21],-0.315
same,glycan array binding signal (z-score),[22],-0.325
same,glycan array binding signal (z-score),[23],-0.324
same,glycan array binding signal (z-score),[24],-0.311
same,glycan array binding signal (z-score),[25],-0.296
same,glycan array binding signal (z-score),[26],-0.292
same,glycan array binding signal (z-score),[27],-0.281
same,glycan array binding signal (z-score),[28],-0.326
same,glycan array binding signal (z-score),[29],-0.321
same,glycan array binding signal (z-score),[30],-0.324
same,glycan array binding signal (z-score),[31],-0.315
same,glycan array binding signal (z-score),[32],-0.302
same,glycan array binding signal (z-score),[33],0.279
same,glycan array binding signal (z-score),[34],-0.15
same,glycan array binding signal (z-score),[35],1.15
same,glycan array binding signal (z-score),[36],-0.322
same,glycan array binding signal (z-score),[37],-0.315
